Measured values as given in publication PMC4336329 (PLoS ONE, 2015).
About 14,000 (4.5%) of roughly 310,000 compounds showed an effect of 50% or more. The effect is printed as a negative number. The list shows a part of the results.

molecular target: human ether-à-go-go-related gene (hERG) potassium channel (human, UniProt Q12809); assay: primary screen, population patch clamp on CHO cells stably expressing hERG
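Also: peak tail current of the secondary pulse compared with the same well before compound.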

Sequence of human ether-à-go-go-related gene (hERG) potassium channel (Q12809 whole entry, looked up): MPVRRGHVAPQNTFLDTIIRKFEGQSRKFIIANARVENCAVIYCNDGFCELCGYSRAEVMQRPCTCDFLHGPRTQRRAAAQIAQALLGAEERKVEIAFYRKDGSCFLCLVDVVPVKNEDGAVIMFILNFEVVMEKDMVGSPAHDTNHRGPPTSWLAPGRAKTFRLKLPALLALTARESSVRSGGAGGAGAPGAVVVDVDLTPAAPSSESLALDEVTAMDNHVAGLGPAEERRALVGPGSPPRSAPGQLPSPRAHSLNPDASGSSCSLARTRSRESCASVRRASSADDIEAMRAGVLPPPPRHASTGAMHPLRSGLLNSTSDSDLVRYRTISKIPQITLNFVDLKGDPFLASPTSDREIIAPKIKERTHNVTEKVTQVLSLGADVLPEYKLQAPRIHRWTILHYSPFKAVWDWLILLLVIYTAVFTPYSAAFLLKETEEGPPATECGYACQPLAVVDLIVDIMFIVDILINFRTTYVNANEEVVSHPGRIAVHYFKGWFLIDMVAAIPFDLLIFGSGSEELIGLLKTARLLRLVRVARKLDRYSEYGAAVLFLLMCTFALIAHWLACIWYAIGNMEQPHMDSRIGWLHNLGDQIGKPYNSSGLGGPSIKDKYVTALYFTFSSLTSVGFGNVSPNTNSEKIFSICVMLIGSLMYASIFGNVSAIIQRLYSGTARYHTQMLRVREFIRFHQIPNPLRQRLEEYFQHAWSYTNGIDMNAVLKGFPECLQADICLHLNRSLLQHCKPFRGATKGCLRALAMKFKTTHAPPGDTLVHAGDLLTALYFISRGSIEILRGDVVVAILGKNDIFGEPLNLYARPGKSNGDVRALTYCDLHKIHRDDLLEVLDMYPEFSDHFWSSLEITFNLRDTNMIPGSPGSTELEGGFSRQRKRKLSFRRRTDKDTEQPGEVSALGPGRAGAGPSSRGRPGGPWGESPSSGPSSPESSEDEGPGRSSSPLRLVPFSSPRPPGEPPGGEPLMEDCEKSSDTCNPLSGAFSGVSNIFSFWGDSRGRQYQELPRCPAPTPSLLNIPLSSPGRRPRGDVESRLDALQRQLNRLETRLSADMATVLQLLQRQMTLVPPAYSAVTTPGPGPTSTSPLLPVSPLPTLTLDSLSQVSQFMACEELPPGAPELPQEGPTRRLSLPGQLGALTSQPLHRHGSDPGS

Compared with `O=C(Cc1cccs1)N(Cc1ccco1)C1(C(=O)NC2CCCC2)CCCCC1`, `O=C(NC1CCCCC1)C(Cc1ccccc1)N1C(=O)C2C3CCC(C3)C2C1=O` (centres unmarked) is lower in “hERG current change (%, negative = inhibition) at 10uM” value: -14.3% for the first, -16.2% for the second.

Going from `O=C(NCc1ccco1)c1cc2cc3ccc(Cl)cc3nc2o1` to `O=C(Nc1cccc(-c2nc3cccnc3s2)c1)c1ccco1`, the “hERG current change (%, negative = inhibition) at 10uM” value falls from 4.32% to -14.9%.

First: Cc1cccc(-n2c(C)cc(/C=C3\C(=N)N4N=C(CC(C)C)SC4=NC3=O)c2C)c1
Second: Cc1cc(/C=C2/NC(=O)N(c3ccccc3)C2=O)c(C)n1-c1cccnc1
The “hERG current change (%, negative = inhibition) at 10uM” value of the first is higher: 0.695% for the first, -41.1% for the second.

Compared with `O=C(NCCc1ccccc1)C1CCN(C2CCN(Cc3ccc(CO)o3)CC2)CC1`, `COc1cc2[nH]c(=S)n(C3CCN(Cc4ccccc4)CC3)c(=O)c2cc1OC` is lower in “hERG current change (%, negative = inhibition) at 10uM” value: 18.2% for the first, -26.6% for the second.

First: Cn1c(CC(=O)Nc2ccccc2)nnc1SCC(=O)NC1=NCCS1
Second: Cc1nnc(SCC(=O)Nc2ccc(N3CCOCC3)cc2)n1Cc1ccccc1
The “hERG current change (%, negative = inhibition) at 10uM” value of the first is higher: 12.7% for the first, -3.51% for the second.

First: Cc1ccc(C(=O)N(Nc2nc3ccccc3s2)C(=O)c2ccc(C)cc2)cc1
Second: NC(=O)c1ccc(NC(=O)CCc2nc3ccccc3s2)cc1
The “hERG current change (%, negative = inhibition) at 10uM” value of the first is higher: 11.1% for the first, 2.49% for the second.

Compared with `O=C(Cc1ccsc1)N1CCN(S(=O)(=O)c2cccc(F)c2)CC1`, `Cc1ccc(S(=O)(=O)N2CCCCCC2)cc1C(=O)NCc1ccccn1` is lower in “hERG current change (%, negative = inhibition) at 10uM” value: -3.85% for the first, -14.8% for the second.

Compared with `Cc1ccc(-c2cc(-c3ccccc3)c(C#N)c(N)n2)o1`, `O=C(OCc1ccccc1)c1cccc(-c2nnc(-c3ccccc3)o2)c1` is lower in “hERG current change (%, negative = inhibition) at 10uM” value: 3.29% for the first, -7.17% for the second.

Compared with `COc1ccc([C@H]2/C=C\CN(S(=O)(=O)/C=C/c3ccccc3)[C@@H](C)C(=O)N2Cc2ccc(F)cc2)cc1`, `Cc1ccc(CNC(=O)c2ccc(COc3ccccc3)cc2)cc1` is higher in “hERG current change (%, negative = inhibition) at 10uM” value: -47.7% for the first, -12.7% for the second.

Compared with `CCn1nc(C)c(CNC(=O)CC2C(=O)NCCN2Cc2ccc(C)o2)c1C` (centres unmarked), `CCOC(=O)Cn1c(=O)n(Cc2ccc(OC)cc2)c(=O)c2cccnc21` is higher in “hERG current change (%, negative = inhibition) at 10uM” value: -68.4% for the first, -6.8% for the second.

Going from `COc1cc(OC)cc(-c2nnc(SCC(=O)N3CCCc4ccccc43)o2)c1` to `COc1ccc(-c2noc(COc3ccccc3OC)n2)cc1OC`, the “hERG current change (%, negative = inhibition) at 10uM” value rises from -7.63% to -4.35%.

Compared with `C1=NCCc2c1[nH]c1ccccc21.[O-][Cl+3]([O-])([O-])O`, `Oc1[nH]c2ccccc2c1N=Nc1c(F)c(F)c(Cl)c(F)c1F` is higher in “hERG current change (%, negative = inhibition) at 10uM” value: -14.8% for the first, 8.9% for the second.

Compared with `Cc1ccc(C(=O)c2cncc(Br)c2)cc1`, `CCOC(=O)c1ccc(Oc2cc(C)nc(SC)n2)cc1` is lower in “hERG current change (%, negative = inhibition) at 10uM” value: -3.32% for the first, -20.6% for the second.

First: Cc1ccc(-n2c(Cc3cccn3C)nnc2SCC(=O)Nc2nnc(C)s2)cc1
Second: Cc1cncn1CCc1nc2c3ccccc3nc(SCC(=O)Nc3cccc(Cl)c3)n2n1
The “hERG current change (%, negative = inhibition) at 10uM” value of the first is higher: -13.6% for the first, -78.4% for the second.

Compared with `COC(=O)C1(C(=O)OC)NOC2C(=O)N(c3ccc(Cl)cc3Cl)C(=O)C21` (centres unmarked), `CC(C)NC(=O)C1(O)c2ccccc2NC(=O)N1c1ccc(Cl)c(Cl)c1` (centres unmarked) is higher in “hERG current change (%, negative = inhibition) at 10uM” value: -3.03% for the first, 9.1% for the second.

Going from `O=C(Nc1ccccn1)c1ccc(S(=O)(=O)c2ccc(Cl)cc2)cc1` to `O=C(Nc1ccc(Cl)cc1)[C@@H]1[C@@H]2C(=O)N(c3ccc(Cl)cc3)C(=O)[C@@H]2[C@H]2C=CC=NN21`, the “hERG current change (%, negative = inhibition) at 10uM” value falls from 7.85% to -24.1%.

Going from `Cc1c(NC(=O)CN2C(=O)c3ccccc3S2(=O)=O)c(=O)n(-c2ccccc2)n1C` to `COc1ccccc1NC(=O)c1cc2ccccc2nc1C`, the “hERG current change (%, negative = inhibition) at 10uM” value falls from 9.79% to 8.42%.

First: Cc1ccsc1/C=C/C1=Cc2c(sc(NC(=O)CSc3n[nH]c(N)n3)c2C#N)C(C)(C)C1
Second: COc1cccc(/C=N/Nc2snc(SC)c2C#N)c1
The “hERG current change (%, negative = inhibition) at 10uM” value of the first is lower: 2.34% for the first, 7.86% for the second.

Going from `CCOc1ccc(NC(=O)CN(c2ccc(OC)cc2)S(=O)(=O)c2cccs2)cc1` to `COc1ccc(NC(=O)CN(C)C(=O)c2ccc(COc3ccccc3)o2)cc1`, the “hERG current change (%, negative = inhibition) at 10uM” value falls from 8.75% to -12.1%.

First: CC(C)CC1Nc2ncnc(N3CCOCC3)c2N(Cc2ccc(Br)cc2)C1=O.O=C(O)C(F)(F)F (centres unmarked)
Second: CC(C)Cc1ccc(/C=C/C(=O)N2CCOCC2)cc1
The “hERG current change (%, negative = inhibition) at 10uM” value of the first is lower: -32.5% for the first, -29% for the second.

First: O=C(CNS(=O)(=O)c1ccc(F)cc1)N1CCCC1
Second: Cc1cccc(N2CCN(C(=O)c3cc(S(=O)(=O)N(C)C)ccc3N3CCCC3)CC2)c1C
The “hERG current change (%, negative = inhibition) at 10uM” value of the first is higher: 12% for the first, -12.3% for the second.

First: O=C(O)c1cc(-c2ccc(/C=N/NC(=S)Nc3ccccc3)o2)ccc1Cl
Second: CC(C)COc1cccc(-c2cc(C(=O)N/N=C/c3ccncc3)c3ccccc3n2)c1
The “hERG current change (%, negative = inhibition) at 10uM” value of the first is higher: 11.9% for the first, 6.44% for the second.

Compared with `CC(C)(C)C(=O)/C=C/c1ccc(Oc2ccccc2)cc1`, `COc1ccc(OC)c(/C=N/N(C)c2ccccc2)c1` is lower in “hERG current change (%, negative = inhibition) at 10uM” value: 11.3% for the first, 3.77% for the second.

Compared with `O=C(O)/C(=C\c1c(C(=O)O)[nH]c2cc(Cl)cc(Cl)c12)c1ccccc1`, `COc1cc(NC(C)CCCN)c2ncccc2c1Oc1ccccc1.O=C(O)CCC(=O)O` (centres unmarked) is lower in “hERG current change (%, negative = inhibition) at 10uM” value: 13.3% for the first, -4.78% for the second.

First: O=C(Nc1nc2c(F)cc(F)cc2s1)C1CC(=O)N(Cc2ccco2)C1 (centres unmarked)
Second: CCOC(=O)c1sc2ncnc(NCc3ccco3)c2c1C
The “hERG current change (%, negative = inhibition) at 10uM” value of the first is lower: -38.4% for the first, -3.31% for the second.

Going from `COc1cc(C#N)ccc1OC(=O)Cc1cc(OC)c(OC)c(OC)c1` to `COc1ccc(CN(C(=O)c2oc3cc(C)ccc3c2C)C2CCS(=O)(=O)C2)cc1OC` (centres unmarked), the “hERG current change (%, negative = inhibition) at 10uM” value falls from 16.3% to -23.4%.

Going from `Cc1cccc(C)c1-n1c(C)cc(/C=N\NC(=O)CC(=O)NC2CCCCC2)c1C` to `Cc1cccc(OCc2nnc(SCC(=O)NC3CCCCC3)n2C)c1`, the “hERG current change (%, negative = inhibition) at 10uM” value rises from -3.61% to -0.348%.

Going from `COc1ccccc1NC(=O)c1ccc(Cl)c(S(=O)(=O)N2CCOCC2)c1` to `CC(=O)c1ccc(N2CCN(S(=O)(=O)c3cc4[nH]c(=O)c(=O)[nH]c4cc3C)CC2)cc1`, the “hERG current change (%, negative = inhibition) at 10uM” value rises from -25.6% to 5.43%.

First: CN1C(=O)NC(=O)/C(=C/c2ccc(C(=O)O)cc2)C1=O
Second: Cc1ccc(/C=N/NC(=O)c2ccc3c(c2)OCCO3)s1
The “hERG current change (%, negative = inhibition) at 10uM” value of the first is lower: 1.07% for the first, 1.53% for the second.

Going from `Cc1ccccc1Sc1ccc(N)cn1` to `Cc1ccc2nc(-c3ccc(-c4ccccn4)s3)cn2c1`, the “hERG current change (%, negative = inhibition) at 10uM” value falls from 13.2% to -1.76%.

First: CCOc1ccccc1OCC(=O)Nc1ccc(N2CCCCC2)cc1
Second: O=C(CN1CCN(c2ccc(F)cc2)CC1)NCc1ccc(F)cc1
The “hERG current change (%, negative = inhibition) at 10uM” value of the first is higher: 7.15% for the first, -43.9% for the second.

First: COc1ccc(N2C(N)=C(C#N)C(c3ccsc3)C3=C2CCCC3=O)c(OC)c1 (centres unmarked)
Second: COc1cccc(C2CC(c3ccccc3OC)n3nc(N)nc3N2)c1 (centres unmarked)
The “hERG current change (%, negative = inhibition) at 10uM” value of the first is lower: -19.6% for the first, -5.43% for the second.

Going from `C=C(C)C(=O)Nc1cccc(C2=NOC3(C2)C[C@@H](C(N)=O)N(C(=O)[C@H]2CCC(=O)N2)C3)c1` (some centres unmarked) to `CC1CC1C(=O)N(C)CC(=O)Nc1cccc(F)c1` (centres unmarked), the “hERG current change (%, negative = inhibition) at 10uM” value rises from -0.161% to 17.2%.

Compared with `CC(C)c1ccc(N(C(=O)c2ccco2)C(C(=O)NC2CCCC2)c2ccncc2)cc1` (centres unmarked), `Cc1ccc(-c2nnn(CC(=O)N(CCN3CCOCC3)C(C(=O)NC(C)(C)C)c3ccco3)n2)cc1` (centres unmarked) is higher in “hERG current change (%, negative = inhibition) at 10uM” value: -42% for the first, 13.7% for the second.

First: COc1ccc(OC)c(CCNC(=O)c2cccc(NC3=NC4CS(=O)(=O)CC4S3)c2)c1 (centres unmarked)
Second: O=C(Nc1ccccc1)OCCOc1cccc(Br)c1
The “hERG current change (%, negative = inhibition) at 10uM” value of the first is lower: -5.79% for the first, 1.49% for the second.

Compared with `O=S(=O)(c1cccc(-c2nc3n(n2)Cc2ccccc2-3)c1)N1CCCCC1`, `Nc1nc(N2CCN(Cc3ccccc3)CC2)n[nH]1` is higher in “hERG current change (%, negative = inhibition) at 10uM” value: 7.91% for the first, 24.7% for the second.

Going from `CC1CN(Cc2ccccc2)c2nc3c(c(=O)n(CC(N)=O)c(=O)n3C)n2C1` (centres unmarked) to `COc1ccc(CCn2c(=S)[nH]c3ccc(N4CCOCC4)cc3c2=O)cc1OC`, the “hERG current change (%, negative = inhibition) at 10uM” value falls from 14.5% to 10.2%.

Compared with `CN(C)C(=O)c1ccc(NC(=O)COc2ccc([N+](=O)[O-])cc2)cc1`, `Cc1ccc(C2/C(=C(\O)c3ccc4c(c3)OCCO4)C(=O)C(=O)N2CC2CCCO2)cc1` (centres unmarked) is higher in “hERG current change (%, negative = inhibition) at 10uM” value: -38.3% for the first, 9.66% for the second.

Compared with `Cc1nn(C(=O)c2c(-c3ccccc3)noc2C)c(C)c1N=Nc1cc(C(F)(F)F)cc(C(F)(F)F)c1`, `CSc1nc(Oc2ccccc2)c2sccc2n1` is lower in “hERG current change (%, negative = inhibition) at 10uM” value: 14.6% for the first, 6.63% for the second.

Compared with `C#CCO[C@@H]1C[C@H](n2cnc3c(=O)[nH]c(NC(=O)C(C)C)nc32)O[C@@H]1CO`, `CCOC(=O)c1c(-c2ccc(C)o2)csc1NC(=O)CN1CCCCC1.O=C(O)C(=O)O` is lower in “hERG current change (%, negative = inhibition) at 10uM” value: 15.4% for the first, -4.68% for the second.

Compared with `CCN(CC)S(=O)(=O)c1ccc(N2CCOCC2)c(NC(=O)C2CC2)c1`, `CCc1ccc(-c2nc(CSCC(=O)N3CCN(c4ncccn4)CC3)c(C)o2)cc1` is lower in “hERG current change (%, negative = inhibition) at 10uM” value: -12.4% for the first, -23.6% for the second.

`OCCNc1nc(Nc2ccccc2)nc(Nc2ccccc2)n1` was tested, and the “hERG current change (%, negative = inhibition) at 10uM” value was -9.85%.
